Reference: PubChem BioAssay AID1345083 (National Center for Advancing Translational Sciences (NCATS), 2018)
The whole screen tested about 94,000 compounds, of which about 6,200 (6.6%) were called active. The inconclusive results got no clear call from the source; some entries with a clear call stand among them for comparison. The call rests on the fitted dose curve; in most records, active means well fitted inhibition curve with a large enough effect; inconclusive means small, poorly fitted or top-dose-only effect; inactive means flat fitted curve, though single readings scatter. A potency beside an inconclusive call is a rough fit, not a confirmed value.
Potency means the concentration at half of the fitted maximal effect; tags describe the fitted curve by direction and shape.

Experiment: Cytotoxic Profiling in HEK 293 Cell Line of Diverse Libraries Using Quantitative High-Throughput Screening; further: nearly all actives have a fitted effect of over 60% in size
Conditions: HEK 293 viability, ATP luminescence (CellTiter-Glo), 48-72 h; series mostly up to 115 µM
Procedure, shortened: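 Luminescence from cellular ATP, measured with CellTiter-Glo, indicates HEK 293 viability. Cells plated at 250 cells/well are treated with compound for 48 or 72 hr at 37 degree Celsius before reagent addition.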
For O=C(CCc1c[nH]c2ccccc12)Nc1cccc(-c2nnc3n2CCCC3)c1, the Potency was inconclusive: 50.1 µM [inhibitor, partial curve, poor fit].
With O=C(Cc1cccc(Cl)c1)N1CCc2nc(-c3ccccc3)nc(-c3ccc(Cl)cc3)c2C1 the Potency was inconclusive: 50.1 µM [inhibitor, partial curve, poor fit].
For CCC(CC)NC(=O)[C@H]1CN(Cc2ccccc2)C[C@H]1C(=O)O, the Potency was “inactive”.
For O=C(Nc1nccs1)[C@@H]1C[C@H](c2ccc(F)cc2)N(Cc2ccccc2Cl)C1, the Potency was inconclusive: 25.1 µM [inhibitor, full curve, poor fit].
In the case of CC(C)c1ccc(CNC(=O)CCC2CCN(C(=O)c3ccccc3F)CC2)cc1, the Potency is reported as inconclusive: 31.6 µM [inhibitor, partial curve, poor fit].
In the case of O=C1CC(c2ccccc2)N(C(=O)CNC(=O)c2[nH]nc3c2COc2ccccc2-3)CCCCCN1 (stereo not drawn), the Potency is reported as active: 31.6 µM.
With O[C@@H]1C[C@@H](c2nc(-c3ccc4c(c3)OCO4)no2)N(Cc2ccccc2)C1 the Potency was inconclusive: 100 µM [inhibitor, partial curve, poor fit].
With Cc1ccsc1-c1[nH]nc2ncc(-c3c(C)noc3C)nc12 the Potency was inconclusive: 100 µM [inhibitor, partial curve, poor fit].
In the case of CC(C)NC(=O)N(C1CC1)C1CCOC2(CCN(C(=O)c3ccco3)CC2)C1 (stereo not drawn), the Potency is reported as “inactive”.
For CC(C)c1nc2c(c(-c3ccc(O)cc3)n1)CN(C(=O)c1ccc(F)cc1)CC2, the Potency was “inactive”.
In the case of COc1ccc(-c2cn3cc(C(=O)NCc4cccc(C(F)(F)F)c4)nc3s2)cc1, the Potency is reported as active: 35.5 µM.
With O=C(NCc1cccs1)C1CCN(Cc2ccccc2-c2ccccc2F)CC1 the Potency was inconclusive: 56.2 µM [inhibitor, partial curve, poor fit].
For O=C(NCCN1CCOCC1)c1nc2sccn2c1-c1ccncc1, the Potency was “inactive”.
In the case of O=[S+]([O-])(Nc1ccccc1)c1ccc2c(c1)OCCN(CC1CC1)C2, the Potency is reported as inconclusive: 79.4 µM [inhibitor, partial curve].
For COc1ccc(N2CC(COc3ccccc3)Oc3nc(C)ccc3C2=O)cc1 (stereo not drawn), the Potency was inconclusive: 31.6 µM [inhibitor, partial curve, poor fit].
For COc1ccc(-c2cccc(C(=O)NC3CCOCC3)c2)nn1, the Potency was inconclusive: 126 µM [inhibitor, single point].
For c1ccc(Cn2cc(CN3CCCC3)c(-c3ccc4c(c3)OCO4)n2)cc1, the Potency was “inactive”.
With O=C1Cc2c(-c3ccccc3Cl)n[nH]c2CN1CC1CC1 the Potency was inconclusive: 100 µM [inhibitor, partial curve, poor fit].
